Assay results as given in PubChem BioAssay AID463173 (ICCB-Longwood Screening Facility, Harvard Medical School, 2010).
In all, about 52,000 compounds went through this assay and about 1,700 (3.3%) were called active. Rule as the data show it: active = survival mostly below about 52% (no sharp cut-off); inactive = mostly above about 56%. The list shows a part of the results.

test system: Wild type; test: S. aureus survival, RN4220 and DeltatarO strains – OD600, teichoic acid synthesis inhibitors, primary screen (AID 463173); conditions: S. aureus RN4220 wild type/DeltatarO growth, OD600, 18 h, active compounds read low, screened at 18.75 µg/mL (by protocol)

| SMILES | survival |
| --- | --- |
| COc1ccc(NC(=O)CCc2nc3cccnc3n2-c2ccccc2)c(OC)c1 | inactive: 68% |
| NC(=O)CSc1nc(-c2ccccc2)nc2c1CCCC2 | inactive: 97% |
| CS(=O)(=O)N(CC(=O)N1CCOCC1)c1cccc2ccccc12 | inactive: 101% |
| CCOC(=O)c1c(NC(=O)c2cc(=O)c3cc(Cl)ccc3o2)sc(C)c1C | inactive: 85% |
| COc1cc(C(=O)Nc2ccccc2OCc2cc(=O)n3c(C)csc3n2)cc(OC)c1OC | inactive: 85% |
| CNCC(=O)NC(c1ccccc1)c1ccccc1 | inactive: 105% |
| Cc1cccc(-c2nc(SCc3cc(=O)c4cccc(F)c4[nH]3)n[nH]2)c1 | inactive: 70% |
| Cc1ccc(C)c(N2CCN(C(=O)CN3CCSc4ccccc43)CC2)c1 | inactive: 67% |
| O=S(=O)(Nc1ccccn1)c1cccs1 | inactive: 104% |
| Cc1ccc(NCc2nnc(SCC(=O)c3ccc(C)cc3)n2C)cc1 | inactive: 100% |
| CCN1CCN(C(c2ccc(C)cc2)c2sc3nc(-c4ccco4)nn3c2O)CC1 (centres undefined) | inactive: 60% |
| O=C1Nc2ccc(S(=O)(=O)N3CCCC3)c3cccc1c23 | inactive: 105% |
| COCCn1c(=N)c(C(=O)NCC2CCCO2)cc2c(=O)n3ccccc3nc21 (centres undefined) | inactive: 81% |
| CCOc1ccc(CCNC(=O)CSc2nnnn2-c2ccccc2Cl)cc1OCC | inactive: 97% |
| COc1ccccc1OCCCn1c(C2CC(=O)N(c3ccc(F)cc3)C2)nc2ccccc21 (centres undefined) | inactive: 101% |
| COc1ccc(CCNC(=O)c2c(Nc3ccccc3C)sc(C(=O)c3ccccc3)c2N)cc1OC | inactive: 53% |
| Cc1cccc2nc(Cn3c(=O)n(-c4ccccc4)c(=O)c4c5c(sc43)CCC5)cc(=O)n12 | inactive: 82% |
| CC(C)n1c(SCC(=O)c2ccc(F)cc2)nc2c(sc3ccccc32)c1=O | inactive: 74% |
| Cc1ccc(C2C(C(=O)/C=C/c3ccccc3)=C(O)C(=O)N2CCO)cc1 (centres undefined) | inactive: 99% |
| CCN1c2ccccc2-c2nc(SCC(=O)Nc3cc(OC)cc(OC)c3)ncc2S1(=O)=O | inactive: 32% |
| COc1ccc(-c2nn(C)c3sc(C(=O)Nc4cc(OC)c(OC)c(OC)c4)cc23)cc1OC | inactive: 79% |
| CCCN(C(=O)c1c(C)oc2ncn(CC(C)C)c(=O)c12)c1ccccc1C | inactive: 59% |
| CCOc1ccccc1NC(=O)CSc1nnc(CC)c(CC)n1 | inactive: 102% |

| SMILES | survival |
| --- | --- |
| CCCCC(CC)CNC(=O)c1ccc(Cn2c(=O)[nH]c3cc(OC)c(OC)cc3c2=O)cc1 (centres undefined) | inactive: 101% |
| CCCOc1ccc(C(=O)Nc2cc(-c3nc4ccccc4[nH]3)ccc2C)cc1 | inactive: 73% |
| COc1cccc(CN2CCCN(Cc3ccc(F)cc3)S2(=O)=O)c1 | inactive: 69% |
| Cc1ccc(O)c(NC(=O)C2=CC(c3cccs3)=NS(=O)(=O)N2C)c1 | inactive: 71% |
| Cc1ccccc1OCC(=O)Nc1nnc(SCc2cc(=O)n3cccc(C)c3n2)s1 | inactive: 82% |
| COc1ccc(C)cc1NC(=O)C1CCN(S(=O)(=O)Cc2ccccc2)CC1 | inactive: 86% |
| COc1cccc(CNC(=O)c2cc3cc(C)ccc3n2C)c1 | inactive: 92% |
| CC1Cc2cc(S(=O)(=O)CCC(=O)Nc3ccc(F)cc3Cl)ccc2N1C(=O)C1CC1 (centres undefined) | inactive: 47% |
| CCOc1ccccc1NC(=O)Cn1c(=O)n(-c2ccc(Cl)cc2)c(=O)c2oc3ccccc3c21 | inactive: 85% |
| Cn1cc(S(=O)(=O)N2CCc3ccccc32)cc1C(=O)Nc1ccc(C(F)(F)F)cc1 | inactive: 63% |
| Cc1c(NC(=O)C(C)(C)C)cccc1-c1nc2ccccc2s1 | inactive: 82% |
| Cc1ccc(-n2nc(C(=O)N3CCN(c4cc(C)ccc4C)CC3)c3c4ccccc4n(C)c3c2=O)cc1 | inactive: 79% |
| Cn1c(=O)n(C)c2cc(N3CCCCC3)c(NC(=O)Nc3ccc(Br)cc3)cc21 | inactive: 81% |
| CCc1ccc(NC(=O)CSc2nc3c([nH]c4ccccc43)c(=O)n2C)cc1 | inactive: 51% |
| CCN(CC)c1ccc(NC(=O)Cn2cc3c(n2)CCCC3)c(C)c1 | inactive: 124% |
| Cc1ccc(-n2c(=O)c3ccc(C(=O)NCc4ccccc4Cl)cc3n(Cc3cccc(F)c3)c2=O)cc1 | inactive: 77% |
| Cc1ccc(CNC(=O)C2CCCN(c3nn4cc(-c5ccc(C)cc5)nc4s3)C2)cc1 (centres undefined) | inactive: 92% |
| CC1C(=N)N(c2nc(N(C)C)nc(N(C)C)n2)CC1=O (centres undefined) | inactive: 91% |
| CCOC(=O)c1cc2c(=O)n3ccccc3nc2n(CC2CCCO2)c1=NC(=O)c1ccccc1OCC (centres undefined) | inactive: 61% |
| COc1ccc(N2CCN(C(CNC(=O)c3c(F)cccc3F)c3ccc4c(c3)OCO4)CC2)cc1 (centres undefined) | inactive: 92% |
| COC(=O)Cc1c(C)c2ccc3c(c2oc1=O)CN(Cc1ccc(Cl)cc1)CO3 | inactive: 85% |
| CCOc1ccc(-n2cc(-c3ccccc3)c3c(NCc4ccccc4)ncnc32)cc1 | inactive: 74% |
| OC1(C#Cc2ccccc2)CCCCC1 | inactive: 111% |

| SMILES | survival |
| --- | --- |
| COCCn1c(SCc2ccccc2F)nc2c([nH]c3ccccc32)c1=O | inactive: 73% |
| Cc1cccc(CNC(=O)c2ccc(Cn3c(SCc4cccc(F)c4)nc4cccnc43)cc2)c1 | inactive: 77% |
| COc1cc(CN(C(=O)c2ccc(C)cc2)C2CCS(=O)(=O)C2)cc(OC)c1OC (centres undefined) | inactive: 88% |
| COc1ccc(CNC(=O)C2CCN(S(=O)(=O)N3CCC(C)CC3)CC2)c(OC)c1 | inactive: 82% |
| C/C(=N/NC(=O)Cc1cccs1)c1ccc(C)cc1 | inactive: 110% |
| Cc1ccc(NS(=O)(=O)c2cn(C)c(C)n2)c(Br)c1 | inactive: 88% |
| COc1cccc(NC(=O)C2CC(=O)N(c3ccc(Br)cc3)C2)c1 (centres undefined) | inactive: 63% |
| Ic1ccc(Nc2nc3nonc3nc2N/N=C\c2ccco2)cc1 | inactive: 36% |
| CCCSc1ncc(Cl)c(C(=O)Nc2ccc(S(=O)(=O)N3CCCCC3C)cc2)n1 (centres undefined) | inactive: 82% |
| N#C/C(=C\c1cccc(F)c1)c1nc(-c2cc3ccccc3oc2=O)cs1 | inactive: 77% |
| Cc1ccc2c(c1)c1c(c(=O)n(Cc3ccccc3)c(=O)n1Cc1cccc(F)c1)n2C | inactive: 68% |
| Cc1ccccc1OCc1nnc(SCc2cc(=O)c3cc(F)ccc3[nH]2)n1C | inactive: 69% |
| Cc1ccc(S(=O)(=O)c2cn(CC(=O)Nc3ccc4c(c3)OCO4)c3ccc(C)cc3c2=O)cc1 | inactive: 75% |
| COc1ccc(-c2nc3ccccc3o2)cc1NC(=O)c1cc([N+](=O)[O-])ccc1N1CCOCC1 | inactive: 59% |
| COc1ccc(-c2ccc(CCC(=O)O)n2-c2ccccc2C(F)(F)F)cc1 | inactive: 129% |
| CCC1CN(CC(=O)NCc2cccc(Br)c2)c2ccccc2S1 (centres undefined) | inactive: 99% |
| NCC1NCCc2ccccc21 (centres undefined) | inactive: 105% |
| COC(=O)Cc1c(C)nc2nc(NCc3ccc(Br)cc3)[nH]n2c1=O | inactive: 90% |
| CCOc1ccc(-c2cc(C)n3nc(C(=O)Nc4ccc(C)c(C)c4)cc3n2)cc1 | inactive: 67% |
| CC(Oc1ccccc1)C(=O)Nc1ccccc1C(=O)OCc1cc(=O)n2nc(C3CC3)sc2n1 (centres undefined) | inactive: 131% |
| CCc1nnc(SCC(=O)Nc2ccc(OC)c(OC)c2)c2cc3occc3n12 | inactive: 81% |
| CCc1ccc(N2CC(C)Cn3c2nc2c3c(=O)n(CC(=O)O)c(=O)n2C)cc1 (centres undefined) | inactive: 68% |
| CCOC(=O)CN(Cc1ccccc1)C(C(=O)NC1CCCCC1)c1ccccc1 (centres undefined) | active: -2% |

| SMILES | survival |
| --- | --- |
| CCCCSc1nc(O)c(CCC(C)C)c(=O)[nH]1 | inactive: 103% |
| Cc1ccccc1NC(=O)CCC(=O)N1CC(C)Sc2ccccc21 (centres undefined) | inactive: 92% |
| COc1cccc(CNC(=O)CSC2=Nc3ccccc3C3=NC(C(C)C)C(=O)N23)c1 (centres undefined) | inactive: 66% |
| O=C(Nc1noc2ccccc12)c1ccc(F)cc1 | inactive: 78% |
| CCOC(=O)c1ccc(NC(=O)C2(S(=O)(=O)c3ccc(Cl)cc3)CC2)cc1 | inactive: 91% |
| COc1ccc(CNC(=O)c2cc(=O)c3cc(C)ccc3o2)cc1 | inactive: 83% |
| C=Cc1ccc(COc2ccc3oc(-c4ccccc4)c(C(=O)OCC)c3c2)cc1 | inactive: 68% |
| Cc1cccc(C)c1NS(=O)(=O)c1ccc(NS(=O)(=O)c2ccc3c(c2)OCCO3)cc1 | inactive: 140% |
| COc1ccc(C(=O)N(c2ccc(OC)cc2)S(=O)(=O)c2ccc3c(c2)n(C)c(=O)n3C)cc1 | inactive: 74% |
| Cc1ccc(C)c(N2CCN(CCCNC(=O)c3ccc4nc(N5CCCCC5)sc4c3)CC2)c1 | inactive: 76% |
| Cc1ccc(-c2nnc(Nc3ccccc3)c3ccccc23)cc1S(=O)(=O)NCc1nc2ccccc2[nH]1 | inactive: 89% |
| Cc1cccc(N2CCN(C(=O)CCS(=O)(=O)c3ccc4c(c3)oc(=O)n4C)CC2)c1C | inactive: 85% |
| CCOC(=O)COc1ccc([N+](=O)[O-])cc1-c1ccnc2cc(-c3ccc(C)cc3)nn12 | inactive: 67% |
| O=C(c1cc2ccc3cccnc3c2[nH]1)N1CCN(c2ccc(Cl)cc2)CC1 | inactive: 91% |
| Cc1c(Cl)cccc1NC(=O)Cn1nnc2sc3c(c2c1=O)CCCC3 | inactive: 90% |
| COc1ccccc1C(=O)Nc1cccc(C(=O)OCc2cc(=O)n3nc(C)sc3n2)c1 | inactive: 73% |
| O=C(CN1C(=O)C2(SCC(=O)N2c2ccccc2)c2ccccc21)NCc1ccccc1 (centres undefined) | inactive: 84% |
| NC(=O)CSc1ncc2c(n1)-c1ccccc1N(Cc1ccc(Cl)cc1)S2(=O)=O | inactive: 75% |
| O=C(Nc1cccc(Cl)c1Cl)c1cc(S(=O)(=O)NCCc2ccccc2)ccc1F | inactive: 76% |
| CC(C)c1noc(-c2ccccc2OCC(=O)Nc2ccccc2[N+](=O)[O-])n1 | inactive: 73% |
